# Measurements as given in a collection of fitness landscapes (doi:10.1016/j.celrep.2020.107928).
# Over roughly 81,000 sequences, “one-hybrid fitness for binding NBS DNA” has its median near -0.1; the highest 2% begin near 0.36. The list shows a part of the results.
# B1: Caulobacter ParB omega fusion; a variant is named by its letters at X, in order, B8GW30 (parent)
# chain: MESVVVGEPGMSEGRRGLGRGLSALLGEVDAAPAQAPGEQLGGSREAPIEILQRNPDQPRRTFREEDLEDLSNSIREKGVLQPILVRPSPDTAGEYQIVAGERAWRAAQRAGLKTVPIMVRELDDLAVLEIGIIENVQRADLNVLEEALSYKVLMEKFERTQENIAQTIGKSXSHVANXMRLLXLPDEVQSYLVSGELTAXHARAIAAAADPVALAKQIIEGGLSVRETEALARKAPNLSAGKSKGGRPPRVKDTDTQALESDLSSVLGLDVSIDHRGSTGTLTITYATLEQLDDLCNRLTRGI
# Variants of: B1
# Test: one-hybrid fitness for binding NBS DNA (the Noc-binding site; scaled: cognate 1, non-cognate 0); higher = stronger binding
# Details: with NBS DNA site
# Summary of the method: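 Pre- and post-selection plasmids were Illumina-sequenced, three replicate libraries were pooled, and any variant with under 10 reads was removed. The libraries were Caulobacter ParB with four specificity codons randomised, selected in E. coli USO through a HIS3 reporter whose site is 19 bp from the promoter. Cells grew 48 hours at 37°C on M9 without histidine, with 0.1 mM IPTG and 5 mM 3-AT. Fitness is the log change in variant-to-wild-type read ratio, rescaled against cognate and non-cognate.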
row,Variant,one-hybrid fitness for binding NBS DNA
1,QWKQ,≤ 0.2
2,QPGL,≤ 0.2
3,GQQA,≤ 0.2
4,QRFC,0.289
5,PMCR,≤ 0.2
6,RSDQ,≤ 0.2
7,LKKT,≤ 0.2
8,SMHG,≤ 0.2
9,RRKK,0.438
10,SWRQ,≤ 0.2
11,NPCT,≤ 0.2
12,NHIP,≤ 0.2
13,YWAG,≤ 0.2
14,YMER,≤ 0.2
15,TTQM,≤ 0.2
16,RNAP,≤ 0.2
17,QCKA,0.608
18,QVSD,≤ 0.2
19,TCCD,≤ 0.2
20,TRVL,≤ 0.2
21,DQVG,≤ 0.2
22,CSLG,≤ 0.2
23,WRQR,≤ 0.2
24,TASA,≤ 0.2

row,Variant,one-hybrid fitness for binding NBS DNA
1,LVTR,≤ 0.2
2,GPVG,≤ 0.2
3,YSDF,≤ 0.2
4,SDWD,≤ 0.2
5,DFMT,≤ 0.2
6,LIAF,≤ 0.2
7,WTLI,≤ 0.2
8,LRGI,≤ 0.2
9,YCHN,≤ 0.2
10,LMQW,≤ 0.2
11,WQKT,≤ 0.2
12,EAVW,≤ 0.2
13,HEHT,≤ 0.2
14,PWVR,≤ 0.2
15,DVFG,≤ 0.2
16,TNLE,≤ 0.2
17,LENL,≤ 0.2
18,CLYC,≤ 0.2
19,LEML,≤ 0.2
20,FCYR,≤ 0.2
21,GPDC,≤ 0.2
22,GKMR,≤ 0.2
23,QGYS,≤ 0.2
24,IDLD,≤ 0.2

row,Variant,one-hybrid fitness for binding NBS DNA
1,GLPR,≤ 0.2
2,GLVD,≤ 0.2
3,QLST,0.413
4,YPKN,≤ 0.2
5,SYAC,≤ 0.2
6,DRSR,≤ 0.2
7,NWMS,≤ 0.2
8,LHCQ,≤ 0.2
9,LGPV,≤ 0.2
10,VILT,≤ 0.2
11,RYGT,0.373
12,NRVR,≤ 0.2
13,AMVC,≤ 0.2
14,SMPF,≤ 0.2
15,RSPL,≤ 0.2
16,GSFR,≤ 0.2
17,TKES,≤ 0.2
18,HAAV,≤ 0.2
19,NVVC,≤ 0.2
20,HSNR,≤ 0.2
21,SFGA,≤ 0.2
22,IRGY,≤ 0.2
23,SDWS,≤ 0.2
24,RPHP,≤ 0.2

row,Variant,one-hybrid fitness for binding NBS DNA
1,DYII,≤ 0.2
2,TNYA,≤ 0.2
3,VDPR,≤ 0.2
4,RHWE,≤ 0.2
5,RFQV,≤ 0.2
6,LDGR,≤ 0.2
7,NNDF,≤ 0.2
8,TLSW,≤ 0.2
9,LSQG,≤ 0.2
10,NANS,≤ 0.2
11,GRIS,≤ 0.2
12,LTHE,≤ 0.2
13,TVLI,≤ 0.2
14,APSM,≤ 0.2
15,PYAH,≤ 0.2
16,LGDR,≤ 0.2
17,LRVF,≤ 0.2
18,NCNT,≤ 0.2
19,PAIF,≤ 0.2
20,FHEV,≤ 0.2
21,VMYG,≤ 0.2
22,APAP,≤ 0.2
23,PPSM,≤ 0.2
24,GLFL,≤ 0.2

row,Variant,one-hybrid fitness for binding NBS DNA
1,MFYR,≤ 0.2
2,PLAH,≤ 0.2
3,AVQG,≤ 0.2
4,RPME,≤ 0.2
5,NVNG,≤ 0.2
6,ICWE,≤ 0.2
7,KMSV,≤ 0.2
8,KKAM,≤ 0.2
9,QLFA,≤ 0.2
10,LQKI,≤ 0.2
11,CGMG,≤ 0.2
12,FPCM,≤ 0.2
13,TNCG,≤ 0.2
14,DYPL,≤ 0.2
15,WKNR,≤ 0.2
16,WVLT,≤ 0.2
17,DGRC,≤ 0.2
18,RTHA,0.291
19,QREY,0.256
20,PRPH,≤ 0.2
21,QILC,≤ 0.2
22,VEHK,≤ 0.2
23,GIGA,≤ 0.2
24,DVSC,≤ 0.2

row,Variant,one-hybrid fitness for binding NBS DNA
1,QLAM,≤ 0.2
2,IPPC,≤ 0.2
3,SIWS,≤ 0.2
4,PRLM,≤ 0.2
5,TQAF,≤ 0.2
6,LQAF,≤ 0.2
7,NPNR,≤ 0.2
8,TIDS,≤ 0.2
9,SLRD,≤ 0.2
10,GDWS,≤ 0.2
11,PIWE,≤ 0.2
12,VFLG,≤ 0.2
13,QCSE,≤ 0.2
14,GWKM,≤ 0.2
15,AKPS,≤ 0.2
16,CSVW,≤ 0.2
17,QYPC,≤ 0.2
18,WLTL,≤ 0.2
19,TGTF,≤ 0.2
20,PCCD,≤ 0.2
21,HCNG,≤ 0.2
22,RPVC,≤ 0.2
23,RWRN,≤ 0.2
24,HCKT,≤ 0.2

row,Variant,one-hybrid fitness for binding NBS DNA
1,THIG,≤ 0.2
2,DHAR,≤ 0.2
3,VLWF,≤ 0.2
4,THKW,≤ 0.2
5,RKIP,≤ 0.2
6,SCMY,≤ 0.2
7,LQDE,≤ 0.2
8,NLFL,≤ 0.2
9,QERS,≤ 0.2
10,REMM,≤ 0.2
11,SCPS,≤ 0.2
12,YQYT,≤ 0.2
13,YPSC,≤ 0.2
14,YFWG,≤ 0.2
15,AFWA,≤ 0.2
16,SVMS,≤ 0.2
17,QYGM,≤ 0.2
18,LLSE,≤ 0.2
19,HLYC,≤ 0.2
20,ASMW,≤ 0.2
21,HHIQ,≤ 0.2
22,NPCR,≤ 0.2
23,DICG,≤ 0.2
24,YCQV,≤ 0.2

row,Variant,one-hybrid fitness for binding NBS DNA
1,PWST,≤ 0.2
2,VLNS,≤ 0.2
3,TDSQ,≤ 0.2
4,ITKR,0.289
5,YLMH,≤ 0.2
6,QRYI,0.254
7,QIGT,0.331
8,HRAF,≤ 0.2
9,FHEY,≤ 0.2
10,PKLC,≤ 0.2
11,VEKT,≤ 0.2
12,YDAS,≤ 0.2
13,GDDS,≤ 0.2
14,YANG,≤ 0.2
15,RMAV,≤ 0.2
16,RAPY,≤ 0.2
17,GQVT,≤ 0.2
18,ARWA,≤ 0.2
19,MQPS,≤ 0.2
20,KTKF,≤ 0.2
21,NRLH,≤ 0.2
22,GYRD,≤ 0.2
23,QHME,≤ 0.2
24,NQLR,≤ 0.2

row,Variant,one-hybrid fitness for binding NBS DNA
1,SGEG,≤ 0.2
2,QAGL,≤ 0.2
3,DHQQ,≤ 0.2
4,LNVT,≤ 0.2
5,IKVT,≤ 0.2
6,QPVV,≤ 0.2
7,IQLS,≤ 0.2
8,YMYR,≤ 0.2
9,QDAV,≤ 0.2
10,GRDR,≤ 0.2
11,RHAD,≤ 0.2
12,GIHG,≤ 0.2
13,GIPC,≤ 0.2
14,WIHR,≤ 0.2
15,CNGS,≤ 0.2
16,CRPV,≤ 0.2
17,KTIE,≤ 0.2
18,YCAS,≤ 0.2
19,PLSN,≤ 0.2
20,QGSF,≤ 0.2
21,CSVL,≤ 0.2
22,TRRP,≤ 0.2
23,SAMS,≤ 0.2
24,YECG,≤ 0.2

row,Variant,one-hybrid fitness for binding NBS DNA
1,DCQM,≤ 0.2
2,RFWE,≤ 0.2
3,QIES,≤ 0.2
4,AYKF,≤ 0.2
5,CPQC,≤ 0.2
6,NPAG,≤ 0.2
7,VNHR,≤ 0.2
8,ADNG,≤ 0.2
9,CLIT,≤ 0.2
10,PRST,≤ 0.2
11,YCTL,≤ 0.2
12,RSYN,≤ 0.2
13,SEWI,≤ 0.2
14,LFAL,≤ 0.2
15,TCMG,≤ 0.2
16,VSPP,≤ 0.2
17,YDRG,≤ 0.2
18,SACG,≤ 0.2
19,SFMT,≤ 0.2
20,KLNR,≤ 0.2
21,RMNF,≤ 0.2
22,TMSL,≤ 0.2
23,ASIL,≤ 0.2
24,MDEC,≤ 0.2

row,Variant,one-hybrid fitness for binding NBS DNA
1,RDPS,≤ 0.2
2,TMQR,≤ 0.2
3,PDLM,≤ 0.2
4,FDLM,≤ 0.2
5,DART,≤ 0.2
6,TTFC,≤ 0.2
7,CKHT,≤ 0.2
8,ISYG,≤ 0.2
9,AQMG,≤ 0.2
10,HGLF,≤ 0.2
11,QVKF,≤ 0.2
12,SVVF,≤ 0.2
13,RNQV,≤ 0.2
14,CSHP,≤ 0.2
15,HWPE,≤ 0.2
16,AFMR,≤ 0.2
17,PMRG,≤ 0.2
18,RKMY,≤ 0.2
19,DYYM,≤ 0.2
20,RKLT,0.579
21,DCQR,≤ 0.2
22,CELM,≤ 0.2
23,KCMR,≤ 0.2
24,RSPK,≤ 0.2

row,Variant,one-hybrid fitness for binding NBS DNA
1,GNDD,≤ 0.2
2,SLPM,≤ 0.2
3,QPGS,≤ 0.2
4,IMEV,≤ 0.2
5,RRAS,0.655
6,GTHP,≤ 0.2
7,LHLM,≤ 0.2
8,TQKC,≤ 0.2
9,KSTL,≤ 0.2
10,GYGY,≤ 0.2
11,KPPM,≤ 0.2
12,PQSC,≤ 0.2
13,HVPR,≤ 0.2
14,TSDL,≤ 0.2
15,YHHT,≤ 0.2
16,IALS,≤ 0.2
17,SQGA,≤ 0.2
18,TLHT,≤ 0.2
19,VIWG,≤ 0.2
20,PQMW,≤ 0.2
21,QWTY,≤ 0.2
22,YILS,≤ 0.2
23,NIDM,≤ 0.2
24,RLRM,≤ 0.2

row,Variant,one-hybrid fitness for binding NBS DNA
1,GPGN,≤ 0.2
2,EWKS,≤ 0.2
3,QPNA,≤ 0.2
4,FLPL,≤ 0.2
5,GSMR,≤ 0.2
6,TDVD,≤ 0.2
7,TQPV,≤ 0.2
8,QQMG,≤ 0.2
9,KTKC,≤ 0.2
10,QLPD,≤ 0.2
11,SKNL,≤ 0.2
12,WEYT,≤ 0.2
13,PFNS,≤ 0.2
14,GSQM,≤ 0.2
15,PVPI,≤ 0.2
16,QYMT,0.416
17,RRNQ,0.313
18,KRKW,≤ 0.2
